Measured values published in PubChem BioAssay AID686971 (National Center for Advancing Translational Sciences (NCATS), 2013).
“And” between values parts separate entries of the source, which are not always exact repeats. Equal entries are not always repeated. The campaign covered roughly 360,000 compounds. About 7,500 (2.1%) were called active. The inconclusive results got no clear call from the source; some entries with a clear call stand among them for comparison. The call rests on the fitted dose curve; in most records, active means well fitted cell-killing curve with a large enough effect; inconclusive means small, poorly fitted or top-dose-only effect, or effect the other way, or another doubt; inactive means no such curve, though single readings can be large or run the other way. Where the call is inconclusive, the potency comes from a doubtful curve fit.

Assay: qHTS for induction of synthetic lethality in tumor cells producing 2HG: qHTS for the HT-1080-IDH1KD cell line;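 on activity, negative = toxicity: 0% = DMSO wells and -100% = cell-free medium wells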
Conditions: HT-1080 IDH1 knockdown viability, ATP luminescence, 48 h; activity, negative = toxicity: at 46.1 µM (top of the series) unless noted
Summary of the method: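 Luminescent ATP read-out (CellTiter-Glo, 10 min at room temperature) after 48 h compound exposure at 37 °C gave viability of IDH1-knockdown HT-1080 cells. Activity was normalised to DMSO and cell-free wells, then fitted as concentration-response curves.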
Potency means the concentration at half of the fitted maximal effect; tags describe the fitted curve by direction and shape.

| SMILES | activity, negative = toxicity | Potency |
| --- | --- | --- |
| CCOC(=O)C1C(=O)CC(C)(O)C(C(=O)OCC)C1c1ccc([N+](=O)[O-])cc1 (centres undefined) | inactive: -1.62% |  |
| Cc1nc(-c2ccccn2)nc(SCC(=O)c2ccccc2)c1Cl |  | inconclusive: 18.4 µM [cytotoxic, single point] |
| COc1ccccc1C(=O)N/C(=C/c1ccc(Br)cc1)C(=O)N1CCOCC1 | inactive: -2.01% |  |
| COC(=O)C1=C(C)Nc2sc(C(N)=O)c(N)c2C1c1ccncc1 (centres undefined) |  | inconclusive: 29.1 µM [cytotoxic, single point] |
| CCOC(=O)c1nc2ccc(C)cc2c2c1C1CC(c3c(Cl)cccc31)N2C(=O)OCc1ccccc1 (centres undefined) | inactive: -29.4% |  |
| C[C@H](CO)N1C[C@H](C)[C@@H](CN(C)C(=O)Nc2ccc3c(c2)OCO3)Oc2ccc(NS(=O)(=O)c3ccccc3)cc2C1=O |  | inconclusive: 0.731 µM [cytotoxic, full curve, poor fit] |
| CCn1c2ccccc2c2cc(Nc3cc(C)nc4ncnn34)ccc21 |  | active: 1.03 µM |
| COCCNC(=O)CN1CCN(C(c2ccccc2)c2ccccc2)CC1 |  | inconclusive: 10 µM [rising, partial curve, poor fit] |
| COc1cccc(-c2cc(=O)[nH][nH]2)c1 |  | inconclusive: 16.4 µM [rising, single point] |
| Cc1ccc(O)c(C(=O)CC(=O)c2cccc(F)c2)c1 |  | inconclusive: 29.1 µM [cytotoxic, single point] |
| CCn1c(SCC(=O)Nc2ccccc2C(=O)OC)nnc1-c1cccc(C)c1 | inactive: -6.2% |  |
| COC(=O)[C@@]1(Cc2ccc(F)cc2)[C@H]2c3cc(C(=O)N(C)C)n(Cc4cc(F)cc5c4OCOC5)c3C[C@H]2CN1C(=O)c1ccccc1 |  | inconclusive: 29.1 µM [cytotoxic, single point] |
| O=C(Nc1nc(-c2ccccn2)cs1)c1cccc(-n2cnnn2)c1 |  | inconclusive: 5.8 µM [cytotoxic, partial curve] |
| COc1ccc(CC(=O)Oc2cc(C)[nH]c(=O)c2[N+](=O)[O-])cc1 | inactive: 20.3% |  |
| COc1cc(C=NO)nc(-c2ccccn2)c1 |  | inconclusive: 0.291 µM [cytotoxic, full curve] |
| CN(C)CCCN(C(=O)c1ccc2c(c1)CCCC2)c1nc2cc3c(cc2s1)OCO3 |  | inconclusive: 16.4 µM [cytotoxic, single point] |
| CCC(CC)C(=O)Nc1cccc(C(=O)Nc2ccc(OC)cc2[N+](=O)[O-])c1 |  | inconclusive: 14.1 µM [cytotoxic, single point] |
| CCC(C)Sc1cccc(-c2nc3ccc(C)cn3c2NCc2ccccc2)c1 (centres undefined) |  | inconclusive: 20.6 µM [cytotoxic, single point] and inconclusive: 29.1 µM [cytotoxic, single point] |
| CC(C)CC(NC(=O)c1ccc(Cl)cc1)C(=O)OCC(=O)c1ccc2c(c1)NC(=O)CO2 (centres undefined) |  | active: 8.2 µM |
| Cc1ccc(-c2[nH]ncc2CNCCc2cnn(-c3ccccc3)c2)cc1C |  | inconclusive: 18.4 µM [cytotoxic, single point] |
| Cc1csc(NC(=O)CSc2nc3ccccc3c3c2CCCC3)n1 |  | inconclusive: 7.31 µM [cytotoxic, partial curve] |
| O=C(CCSc1nc(-c2ccc3c(c2)OCO3)cc(C(F)(F)F)n1)NCc1ccccc1 |  | inconclusive: 32.6 µM [cytotoxic, single point] |

| SMILES | activity, negative = toxicity | Potency |
| --- | --- | --- |
| OC(c1cccc(Cl)c1)c1ncc(-c2ccc3ccccc3c2)[nH]1 (centres undefined) |  | inconclusive: 29.1 µM [cytotoxic, single point] |
| Cc1ccc(-c2nc(-c3ccncc3)no2)cc1 | inactive: -0.48% |  |
| O=Cc1cc2ccccc2nc1SCc1ccc(Cl)cc1 |  | active: 7.31 µM |
| C=CCN(CC=C)S(=O)(=O)c1ccc(NC(=S)NC(=O)C2CC2)cc1 |  | inconclusive: 29.1 µM [cytotoxic, single point] |
| Cc1ccc(S(=O)(=O)N2CCCC2C(=O)Nc2nc3c(s2)CCCC3)cc1 (centres undefined) | inactive: -23% |  |
| COc1ccc(-c2csc(NC(=S)NC(=O)c3ccco3)n2)cc1 | inactive: 4.38% |  |
| COc1ccccc1CNCC(O)Cn1c2ccccc2c2ccccc21 (centres undefined) |  | inconclusive: 29.1 µM [cytotoxic, single point] |
| O=c1c2cccc3c2c(nn1CN1CCOCC1)-c1ccccc1-3 |  | inconclusive: 20.6 µM [cytotoxic, single point] |
| CCn1cnc2c1c(=O)n(CC(=O)Nc1ccc3c(c1)OC(F)(F)O3)c(=O)n2Cc1ccccc1 |  | inconclusive: 20.6 µM [cytotoxic, partial curve] |
| CC(C)(C)CC(=O)Nc1ccc(Nc2ccccc2)cc1 | inactive: -14.6% |  |
| O=C(c1cnn2c1NC(c1ccc(Br)cc1)CC2C(F)(F)F)N1CCN2CCCC2C1 (centres undefined) |  | inconclusive: 12.6 µM [cytotoxic, partial curve] |
| O=C1c2ccccc2C(=O)N1CSc1nnc(Nc2ccccc2)s1 |  | inconclusive: 18.4 µM [rising, partial curve] |
| CCCCN1C[C@H](CO)Oc2cccc(F)c2S1(=O)=O | inactive: 3.28% |  |
| Cc1ccc(S(=O)(=O)Oc2ccccc2-c2ccccc2)cc1 |  | active: 16.4 µM |
| Cc1ccc(NS(=O)(=O)c2sc3ccc(Cl)cc3c2C)cc1 |  | inconclusive: 18.4 µM [cytotoxic, single point] |
| O=C(CSc1ccc2ccccc2c1Br)Nc1cccc(S(=O)(=O)NC2=NCCCCC2)c1 |  | active: 16.4 µM |
| CN(C)CCCNC(=O)/C(=C\C=C\c1ccccc1)NC(=O)c1ccc([N+](=O)[O-])cc1 |  | inconclusive: 16.4 µM [cytotoxic, single point] |
| O=S(=O)(N/N=C/c1cn(Cc2ccccc2)c2ccccc12)c1ccccc1 | inactive: -24% |  |
| CN(C)c1ccc(N/C=C/C(=O)C(C)(C)C)cc1 |  | inconclusive: 23.1 µM [cytotoxic, single point] |
| CC(C)=CCc1cc([C@@H]2CC(=O)c3ccc(O)c(CC=C(C)C)c3O2)ccc1O |  | inconclusive: 29.1 µM [cytotoxic, single point] |
| COc1cccc(NC(=O)CN(C)C(=O)C(Sc2ccccc2)c2ccccc2)c1 (centres undefined) | inactive: -18.5% |  |
| CC(C)(C)c1ccc(-c2nnc(NC(=O)c3ccccc3)s2)cc1 |  | inconclusive: 10 µM [rising, partial curve, poor fit] |
